According to PubChem BioAssay AID2202238 (Ras Initiative Chemistry Research Team, Frederick National …, 2025):
In all, about 2,200 compounds went through this assay and fewer than 10 were called active. This is one part of the list. The source made no clear call on entries shown without one.

These compounds were tested against GTPase KRas (Homo sapiens) (UniProt P01116) (assay: Cysteine mutants labelled by reactive fragments (mass read-out) (AID 2202238)). Conditions: KRAS G12D cysteine mutants, disulfide tethering, MALDI-TOF labeling; stronger effect = higher value; H27C mutant labeling; fragment at 500 µM.
Chain of UniProt P01116 (P01116 whole entry, looked up, the tested form may be a part): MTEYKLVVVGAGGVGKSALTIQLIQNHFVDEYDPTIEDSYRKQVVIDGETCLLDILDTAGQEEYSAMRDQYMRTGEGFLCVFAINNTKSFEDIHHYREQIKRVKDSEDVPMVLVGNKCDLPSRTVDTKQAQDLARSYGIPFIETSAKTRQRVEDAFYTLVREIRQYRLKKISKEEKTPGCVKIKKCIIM
Design: protein at 5 µM with 500 µM competing thiol for 1.5 h

In order of falling percent labeling:
1. CN1CCN(CCc2cccc(NC(=O)CCS)c2)CC1  56.2%
2. O=C(NCCS)c1ccc2[nH]c(=O)n(CC(F)(F)F)c2c1  53.3%
3. Cc1nc2cc(F)c(F)cc2n1CC(=O)NCCS  49.8%
4. CC(C(=O)NCCS)N1CCCCCC1 (configuration not stated)  49.1%
5. Cn1nc(C(=O)NCCS)c(=O)c2ccccc21  48.6%
6. O=C(CCS)N1CCC(n2cnc3ccccc32)CC1  48.5%
7. Cc1ccc(NC(=O)CCS)cc1N1C(=O)CNC1=O  48.5%
8. Cc1nc2ncc(C(=O)NCCS)cc2[nH]1  47.9%
9. NC(=O)N1CCc2cc(NC(=O)CCS)ccc21  47.6%
10. O=C(CCS)NCc1ccc(CN2C(=O)CNC2=O)cc1  46.4%
11. Cc1noc(C)c1CN(Cc1c(C)noc1C)C(=O)CCS  45.9%
12. Cn1ncc2nc(C(F)F)c(NC(=O)CCS)cc21  45.7%
13. CCOC(=O)c1cnc(N2CCN(C(=O)CCS)CC2)s1  45.7%
14. Cn1ncc2nc(C(F)(F)F)c(C(=O)NCCS)cc21  44.9%
15. NC(=O)COc1cccc(NC(=O)CCS)c1  44.9%
16. O=C(CCS)NCc1cccnc1Oc1cccc(F)c1  44.1%
17. N#Cc1cc2c([nH]c1=O)CCC(NC(=O)CCS)C2 (configuration not stated)  43.4%
18. CC1(N2CCCC2)CCN(C(=O)CCS)CC1  43.3%
19. Cn1cnc2cccc(CNC(=O)CCS)c21  42.6%
20. O=C(CCS)Nc1ccccc1-c1ncc2n1CCCC2  42.5%
21. Cc1nc(C(=O)N2CCC(C(=O)NCCS)CC2)c(C)o1  42.3%
22. O=C1CC(C(=O)NCCS)c2ccc(F)cc2N1 (configuration not stated)  42.3%
23. CC1(CC2CCCN2C(=O)CCS)NC(=O)NC1=O (configuration not stated)  41.9%
24. Cn1cc(CN(Cc2cnn(C)c2)C(=O)CCS)cn1  41.7%
25. Cc1ccc(C(=O)NCCS)cc1-c1cnn(C)c1  41.5%
26. COc1cc2c(cc1OC)CN(CC(=O)NCCS)CC2  41.3%
27. CCN(CC(=O)Nc1ccccc1C(F)(F)F)C(=O)CCS  41.2%
28. Cc1nccc(-c2cccc(NC(=O)CCS)c2)n1  40.6%
29. CC(=O)N1CCc2cc(C(=O)NCCS)ccc21  40.5%
30. O=C(NCCS)C1CCN1C1CCCC1 (configuration not stated)  40.4%
31. CC1(C(=O)NCCS)CCCN(C(=O)c2ccccc2)C1 (configuration not stated)  40.4%
32. COc1nc(C)ccc1CNC(=O)CCS  40.2%
33. O=C(CCS)NC1CC2(C1)NC(=O)NC2=O (configuration not stated)  40%
34. O=C(CCS)Nc1cccc(-c2ccccc2C(F)(F)F)c1F  39.6%
35. O=C(CCS)NCCn1ccc2c(Br)cccc21  39.2%
36. O=C(NCCS)C1(c2nccc3ccccc23)CC1  39.1%
37. O=C1CCCc2cc(C(=O)NCCS)ccc2N1  38.9%
38. COC(=O)c1sc2c(c1Br)CN(C(=O)CCS)C2  38.8%
39. O=C(CCC(=O)N1CCOc2ccccc21)NCCS  38.6%
40. CC(O)(CN1C(=O)C(C)(C)c2ccccc21)C(=O)NCCS (configuration not stated)  38.5%
41. O=C(NCCS)c1nn2c(c1Br)CCC2  38.3%
42. O=C(CCS)N1CCC(n2ccc(=O)[nH]c2=O)CC1  38.2%
43. O=C(CCS)NC1(c2nc(C3CC3)cc(=O)[nH]2)CCCCC1  37.8%
44. O=C(NCCS)C1CC(=O)N(CCc2ccc(F)cc2)C1 (configuration not stated)  37.6%
45. O=C(CCS)NCC(=O)N1CCc2sccc2C1  37.5%
46. Cn1nc(NC(=O)CCS)cc1CN1CCOCC1  37.4%
47. COc1cc2ccccc2c(NC(=O)CCS)n1  37.2%
48. O=C(Nc1ccc(F)cc1)NC1CCN(C(=O)CCS)CC1  36.9%
49. CN(C)Cc1csc(CNC(=O)CCS)n1  36.6%
50. O=C(CCS)N1CC2ON=C(C(F)F)C2C1 (configuration not stated)  36.6%
51. COc1ccc(Br)cc1C1(NC(=O)CCS)CC1  36.5%
52. O=C(CCS)NCc1c(F)cccc1OC(F)F  36.3%
53. Cn1cc(NC(=O)CCS)c(-c2ccccn2)n1  36.1%
54. Cc1cccc(Oc2ccc(NC(=O)CCS)c(C)n2)c1C  36.1%
55. Cc1noc(-c2ccccc2C(=O)NCCS)n1  35.7%
56. Cc1cc(C(=O)NCCS)nc(C(F)(F)F)n1  35.7%
57. O=C(CCn1c(=O)[nH]c(=O)c2ccccc21)NCCS  35.5%
58. CCc1cc(OC)c(CC2(NC(=O)CCS)CC2)cc1OC  35.4%
59. O=C(CCS)NCc1ccnn1C1CCCCC1  34.8%
60. O=C(CCS)NC1(c2ncccc2F)CCC1  34.7%
61. COC(=O)c1cc(C2CN(C(=O)CCS)C2)[nH]n1  34.5%
62. C[C@H]1OCC(=O)N(Cc2ccccc2)[C@@H]1C(=O)NCCS  34.5%
63. Cc1ccn(C2CCN(C(=O)CCS)CC2)n1  34.3%
64. CC(C)n1nccc1C1NC(=O)CCC1NC(=O)CCS (configuration not stated)  34.2%
65. O=C(Cc1cc2ccccc2c(=O)o1)NCCS  34.2%
66. N#Cc1cc2c([nH]c1=O)CCN(C(=O)CCS)C2  34.2%
67. CC(NC(=O)c1ccc(Br)o1)C(=O)NCCS (configuration not stated)  34.1%
68. CC(C)(C)Cn1c(=O)[nH]c2c(C(=O)NCCS)cccc21  34.1%
69. O=C(CCc1ccc2cccnc2c1)NCCS  34.1%
70. Cc1sc2ncn(CCC(=O)NCCS)c(=O)c2c1C  34%
71. Cn1ccn2ncc(CNC(=O)CCS)c2c1=O  34%
72. CC(C)(Oc1c(F)cccc1F)C(=O)NCCS  33.9%
73. O=C(CCS)N1CCC(N2C(=O)CCCC2=O)CC1  33.8%
74. Cc1nc(N2CCN(C(=O)CCS)CC2)n[nH]1  33.3%
75. CCc1[nH]cnc1C(=O)NCCS  33.1%
76. O=C(NCCS)c1ncccc1Br  33%
77. Cc1nc(N)c2c(C)c(C(=O)NCCS)sc2n1  32.7%
78. COc1ccccc1OCCC(=O)NCCS  32.7%
79. CCn1cccc(CNC(=O)CCS)c1=O  32.7%
80. O=C(CC(c1ccc(Cl)c(Cl)c1)N1CCOCC1)NCCS (configuration not stated)  32.5%
81. Cc1cc(NC(=O)CCS)cnc1N1CCCCC1C (configuration not stated)  32.2%
82. Cn1nnc(CN2CCC[C@@H]2C(=O)NCCS)n1  32.2%
83. O=C(NCCS)C1CCN(C(=O)C2CCCCC2)CC1  32.1%
84. CC(C)(O)c1n[nH]c(CNC(=O)CCS)n1  31.9%
85. O=C(NCCS)c1cccc(Nc2ncnc3ccccc23)c1  31.9%
86. Cc1noc(CN2CCN(C(=O)CCS)CC2)n1  31.6%
87. Cc1csc(N(CCc2ccccc2)C(=O)CCS)n1  31.4%
88. Cc1c(NC(=O)CCS)cnn1CC(C)(C)O  31.2%
89. COc1ccc2c(c1)CCC(C(=O)NCCS)C2 (configuration not stated)  31%
90. COc1cc[nH]c(=O)c1CNC(=O)CCS  30.5%
91. O=C(NCCS)c1cc2c(C(F)(F)F)cc(=O)[nH]c2o1  30.5%
92. O=C(CCS)NCc1ncoc1-c1ccccc1  30.4%
93. O=C(NCCS)C1CCCN1C(=O)c1cncn1-c1ccccc1 (configuration not stated)  30.2%
94. O=C(NCCS)C1CC12CCc1cc(Br)ccc12 (configuration not stated)  30.1%
95. Cc1onc(-c2ccccc2)c1NC(=O)CCS  30.1%
96. O=C(NCCS)c1cnn(-c2ccc(Cl)cc2Cl)c1  30%
97. O=C(NCCS)c1cc2scc(Br)c2s1  30%
98. CC1CC1c1ccc(CNC(=O)CCS)o1 (configuration not stated)  29.9%
99. O=C(CCS)NC1CC12CCc1cc(Br)ccc12 (configuration not stated)  29.9%
100. O=C(NCCS)[C@@H]1C[C@]12CCOc1ccc(Cl)cc12  29.5%
101. O=C(CCS)N1CCn2c(CC3CC3)nnc2C1  29.3%
102. COc1cccc(-n2cc(NC(=O)CCS)nn2)c1  29.3%
103. CC(O)(C(=O)NCCS)C1CCC1 (configuration not stated)  29.3%
104. O=C(CCCc1c[nH]c2ccccc12)NCCS  29.2%
105. Cc1cn(CC(=O)NCCS)nc1C(F)(F)F  28.8%
106. O=C(NCCS)C1CN(C(=O)C2CCCCC2)C1  28.7%
107. O=C(NCCS)c1cc2ccc(Br)cc2c(=O)[nH]1  28.3%
108. CC(C)(C)OC(=O)N1CCC2(CC1)CCN2C(=O)CCS  28.2%
109. Cc1cnn(-c2cccc(C(=O)NCCS)c2)c1  28.2%
110. O=C(CCS)N(c1ccc(F)cc1)C1CCC1  28%
111. O=C(NCCS)c1csc(COc2ccc(F)cc2)n1  27.5%
112. Cn1ccc(NC(=O)CNC(=O)CCS)n1  27.4%
113. O=C(NCCS)c1c(F)cccc1-n1cccn1  27.4%
114. O=C(NCCS)[C@@H]1CCCC[C@@H]1C(F)(F)F  27.2%
115. O=C(CCS)NCC1CN(C2CC2)C(=O)O1 (configuration not stated)  26.9%
116. Cn1ccnc1[C@H]1[C@H](C(=O)NCCS)CCC(=O)N1C1CC1  26.8%
117. O=C(NCCS)c1occc1CN1C(=O)Cc2ccccc21  26.7%
118. Cc1noc(CC2(NC(=O)CCS)CC2)n1  26.7%
119. O=C(NCCS)c1csc(-c2cc3ccccc3o2)n1  26.1%
120. O=C(CCS)Nc1ccc(Oc2ccccc2)c(F)c1  25.7%
121. COc1ccc(CCC(=O)NCCS)cc1Cl  25.3%
122. Cc1ccc(S(=O)(=O)N2CCC(C(=O)NCCS)CC2)cc1Cl  25.1%
123. O=C(NCCS)c1ccc2c(Br)cnn2c1  25.1%
124. O=C(NCCS)c1cc2c(Br)c(F)ccc2[nH]1  25%
125. O=C(NCCS)c1ccc2nc(-c3ccc(F)cc3)[nH]c2c1  25%
126. O=C(Cc1cccc(OCC(F)(F)F)c1)NCCS  24.9%
127. CCOc1cc(C#N)cc(Br)c1OCC(=O)NCCS  24.2%
128. O=C(CCS)NCCc1nccc(C(F)F)n1  24.1%
129. O=C(NCCS)c1cc(Nc2ccccc2)ncn1  24%
130. O=C(NCCS)c1ncoc1-c1ccc(F)cc1  23.8%
131. Cn1nc(C(=O)NCCS)cc1-c1ccc(Cl)cc1  23.3%
132. CCn1c2ccccc2c2cc(CN(C)C(=O)CCS)ccc21  22.9%
133. O=C(NCCS)c1occc1-c1ccc(F)cc1  22.7%
134. O=C(NCCS)C1CCN(c2ccc3cccc(O)c3n2)CC1  22.5%
135. CC1(C(=O)NCCS)CCN(c2ccc(Cl)cc2C#N)CC1  21.5%
136. COc1cc(N2CCN(C(=O)CCS)CC2)ccc1O  20.4%
137. O=C(NCCS)C1CCCc2sc(Nc3ccccc3)nc21 (configuration not stated)  19.4%
138. O=C(NCCS)C1CC=CCC1C(=O)NC1CC1 (configuration not stated)  18.8%
139. Cc1cccc(NC(=O)CCNC(=O)CCS)n1  14.9%
140. Cc1nn(C(C)(C)C)c2nc(C(C)C)cc(C(=O)NCCS)c12  13.9%
141. O=C(CCS)N1CCn2cccc2C12CCC2  11.6%
142. O=C(CCS)Nc1ccc(SCc2ccccc2)c(Br)c1  4%
